Assay results published in the supplement of paper PMC3334620.
Whole data set: some 33,000 sequences, median “E-score (-0.5 to 0.5)” near -0.016, cut for the highest 2% near 0.32. Some of the results follow.

What follows are sequences tested against T1, Stp1 (UniProt B3LFK1) (assay: PBM E-score (8-mer binding enrichment) (E-score (-0.5 to 0.5)); higher = stronger / more preferred TF binding; most listed sequences are background and not binding sites). Settings: protein concentration: 200 nM; construct: GST-full length.
T1 sequence: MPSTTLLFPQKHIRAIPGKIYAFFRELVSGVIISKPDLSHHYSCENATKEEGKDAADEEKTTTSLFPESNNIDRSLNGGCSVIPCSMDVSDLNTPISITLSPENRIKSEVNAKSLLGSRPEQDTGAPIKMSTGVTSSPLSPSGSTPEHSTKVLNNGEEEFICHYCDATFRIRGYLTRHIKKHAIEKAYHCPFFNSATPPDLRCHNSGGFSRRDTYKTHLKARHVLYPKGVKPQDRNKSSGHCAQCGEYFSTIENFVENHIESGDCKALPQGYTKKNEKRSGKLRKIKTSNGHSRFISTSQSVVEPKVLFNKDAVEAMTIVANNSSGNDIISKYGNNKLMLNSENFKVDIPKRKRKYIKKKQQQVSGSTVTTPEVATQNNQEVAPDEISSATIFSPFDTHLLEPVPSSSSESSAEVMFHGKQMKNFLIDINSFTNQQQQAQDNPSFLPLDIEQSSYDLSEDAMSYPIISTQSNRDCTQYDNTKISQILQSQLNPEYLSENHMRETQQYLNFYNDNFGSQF
Summary of the method: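 E-scores (a modified Wilcoxon-Mann-Whitney statistic) were assigned by the Universal PBM Analysis Suite to every ungapped eight-base word pooled with its reverse complement. The input came from universal all-10-mer Agilent arrays made double-stranded by primer extension and probed with GST-tagged yeast transcription factors at about 100-200 nM. Fluorescent anti-GST detected bound protein, and masliner normalised the scans.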

Row | Sequence | PBM E-score
1 | CGCACGTC | 0.132
2 | GAGCCGTA | 0.468
3 | GCAATTCA | 0.0517
4 | CACCAATA | 0.0685
5 | CTGGGGTC | -0.344
6 | AGGTATCG | 0.0192
7 | CGCTATTA | 0.0923
8 | CAAAGGAA | 0.123
9 | CATTTGGG | -0.0403
10 | AAGTCTAT | -0.117
11 | ACCGTCAC | -0.243
12 | CTTAGGCA | -0.0386
13 | AACGCTTA | -0.083
14 | CGTTGTAG | -0.016
15 | TATGCGAA | -0.0247
16 | AAGAGGTA | -0.00795
17 | GACATCTC | -0.152
18 | GCCACTAC | -0.0571
19 | AGCCCTGG | -0.241
20 | GGCCCTCA | -0.276
21 | ACGCATAA | 0.162
22 | ACACATTA | -0.0293
23 | CCTTGCGA | 0.0926
24 | AGGGGGTA | -0.4
25 | AGCTGGCA | -0.0867

Row | Sequence | PBM E-score
26 | AAACTGGC | -0.0924
27 | ATCAGAAC | -0.063
28 | ATACGGGG | 0.0876
29 | CTTTCGAC | -0.104
30 | GCAACGGC | 0.411
31 | GGCACGTA | 0.246
32 | AGTCGGAG | -0.192
33 | AACACACT | -0.0084
34 | CCTAGCGC | -0.00646
35 | CAACCGTC | -0.259
36 | ACTTTCAC | 0.0231
37 | GCCTTCAA | -0.00288
38 | ATATCGCC | 0.322
39 | AGTGCATG | -0.0175
40 | TGACCCAA | -0.0481
41 | CTCTAGTC | -0.279
42 | ATATTGCA | -0.00326
43 | TAGCCAAA | -0.0204
44 | ATTATACC | 0.148
45 | GTCATACA | -0.0156
46 | AAAGTACG | 0.165
47 | CGCAATTA | 0.17
48 | GTTTGATA | 0.155
49 | AATAGTAG | 0.175
50 | ACAAAGCT | 0.0299

Row | Sequence | PBM E-score
51 | GTCGGCTA | -0.0709
52 | GGATCGTA | 0.0272
53 | CCATTGAA | 0.114
54 | CTATCAGC | 0.0102
55 | ACACTCCA | -0.011
56 | ATTACGTG | 0.108
57 | CGCTTACG | -0.167
58 | GGATCTAA | -0.00936
59 | CTAACCCC | -0.281
60 | GAGGGATA | -0.298
61 | CTCATGAC | -0.0816
62 | AGACGGCG | 0.463
63 | AATCTGTG | 0.154
64 | AACTAGCG | 0.0816
65 | CCAAGCAG | 0.0965
66 | AACCAGTC | -0.0234
67 | AGGCGTGG | -0.0393
68 | ACACGTCA | -0.0247
69 | ATTCCTCA | 0.0196
70 | CCGAAACA | 0.178
71 | AGCTGGAA | 0.0236
72 | CTTGACTA | -0.16
73 | CCAAGACA | -0.137
74 | CTCGCGAC | 0.0888
75 | TACGGGCA | 0.115

Row | Sequence | PBM E-score
76 | ATAGATAG | -0.155
77 | ACGCACAT | 0.0704
78 | AGTCTTTA | -0.129
79 | AGTATCAT | 0.149
80 | CTTCTTAC | -0.172
81 | GCCAATAA | 0.12
82 | AAAGCTGT | 0.103
83 | ACTATCGC | 0.057
84 | ACTAAGTC | -0.0456
85 | CCCGGCCC | -0.416
86 | TATAAAGA | -0.0524
87 | CGTATTAA | 0.162
88 | ACCCTATG | -0.254
89 | ACAGTCCG | -0.0579
90 | GCGGGGCC | 0.122
91 | CAGCCCAC | -0.109
92 | ACTCTCGA | -0.171
93 | AGCTAGGG | -0.336
94 | CAGGCTCC | -0.185
95 | AACAAAAT | 0.0791
96 | AACCTACC | -0.294
97 | AACCATCC | -0.128
98 | AATGAACG | 0.0312
99 | AATACGAG | 0.0155
100 | CATAGTTC | 0.00951

Row | Sequence | PBM E-score
101 | CGAACACC | -0.069
102 | CTGGGGGA | -0.35
103 | CAATGGGG | -0.00976
104 | CCGCTCTA | 0.106
105 | AGGAGGAC | -0.267
106 | CGGCATTA | 0.436
107 | ATTGGGCC | 0.181
108 | CCCAGCGG | -0.107
109 | ATATAATC | 0.0942
110 | AACCACGG | 0.0855
111 | GCCTTCCC | 0.0651
112 | TCGTACGA | 0.0984
113 | GCATGGCC | -0.015
114 | AGCGAACC | -0.121
115 | ACGGTAGG | -0.212
116 | AGGTCACT | -0.265
117 | AGTGGAAC | -0.0597
118 | CTGGGTAC | -0.0852
119 | CAGGCTTA | -0.186
120 | TAAACCTA | -0.0754
121 | TCCGTAGA | 0.0858
122 | CGATAGCA | -0.222
123 | ATGATCTA | 0.0525
124 | CTCATCAA | 0.127
125 | AGGGCGCC | 0.343

Row | Sequence | PBM E-score
126 | CATACGGC | 0.472
127 | GATATAGA | 0.0916
128 | AAACCGTA | 0.019
129 | AATCATCC | -0.0602
130 | ATTCGCTA | -0.0429
131 | AGGCTAGA | -0.17
132 | CTGTCTGC | -0.0925
133 | CCTTCTAG | 0.0336
134 | ACCAGTAC | -0.105
135 | CACGCACC | -0.0624
136 | ACTAGGCT | 0.0277
137 | ACGGTTGG | -0.04
138 | CTCAACCA | 0.033
139 | CGACCCCA | 0.0203
140 | AGTCGATG | -0.194
141 | AAGCCAGT | -0.181
142 | ATCGCTCG | 0.0255
143 | ACTACACT | -0.0657
144 | ACGATAAC | -0.131
145 | TTTATAAA | 0.376
146 | ACTGGAAC | -0.0147
147 | AATCCCTG | -0.0247
148 | ATGAGGTG | -0.0679
149 | TGGACACA | -0.0894
150 | GCAGGGTA | -0.191

Row | Sequence | PBM E-score
151 | GTGGCCAC | -0.0105
152 | AGCGTTGA | -0.0269
153 | GACGGTGC | -0.021
154 | GAGGCAAA | 0.239
155 | AGGGAGGC | -0.121
156 | ACTCGCGG | 0.106
157 | CGATGATC | -0.0137
158 | ATGTCACG | 0.0791
159 | AAGACGAG | -0.0698
160 | ATTATAAA | 0.178
161 | CCTAGCGA | -0.201
162 | GAGGTTGA | -0.0562
163 | CGGTTAAA | 0.1
164 | ACTGCATC | 0.0192
165 | GAGTACGC | -0.0795
166 | GCAGAGAC | -0.185
167 | TTGAGCAA | -0.0145
168 | TACCGAGA | -0.114
169 | CAGACCAC | -0.108
170 | GACTCAGA | -0.0935
171 | AATTTGAC | 0.0587
172 | AAGCCCCG | -0.0486
